# Experimental data as given in the RNAGym collection of RNA variant scans (doi:10.7554/elife.90254).
# The source gives no read counts; variants with many changes may rest on few reads.
# B1: LINE1-full (parent)
# chain: UACGUAGGUGGUUUUCCCCUGAUAGUGCUAAGGGGGCCUGGAAGUUUGGACUGGGCAGAGCUCAACACAGCGUGGCAAAGUGGCUGUGGCUAGACUGCCUCUCUGGAUUCCUCGUCACUCAGCAGGGCAUCUCUGAGAGAAAUGCC
# Variants of: B1
# Experiment: self-cleavage, relative activity (ratio to wild type); higher = more cleavage; in vitro, sequencing; the parent is a self-cleaving ribozyme
row,Variant,self-cleavage
1,C19U A31U U47C A138G,0.95
2,U12C U62C A124G,0.21
3,G11C U29C U73A U87A,0.07
4,A31U U85C U104C,0.3
5,U13C U29C U112C,0.79
6,U62C U73C U100C G114A,0.04
7,G49A U81C U87A U112C C116U U119A,0.05
8,A42G U112A A136G,1.23
9,G35A A59U A138G,0.79
10,U13G A77U U115A,1.04
11,G36U U45C U109C,1.86
12,A24U U39C G80A G126C,2.49
13,U20C U81A A117G,1.4
14,A79U A92G U143C,0
15,C90A A94G A138G,0.02
16,A2G A64U A67G,0.54
17,U12G U52A U130C,1.84
18,U26C A50U U62C U119C,0
19,U46C A77U U87A G127C A141G,0.07
20,U45A A57G A77U A142G,0.63
21,A59G A69U A141G,0
22,U13A A57U U96C,0.04
23,A64U G114A U119A,0.38
24,U14C C95U U132C,0.23

row,Variant,self-cleavage
1,A30G A57G A136U,0.54
2,A78U U87C U100A U134C,0.1
3,C3G A31G U39A U108C A140U,0.21
4,A2G A30U G32A U39C A67G,0
5,A57U U104A U132A U134A A141G,0.04
6,U20C G25A U104A,0.73
7,U13C U15C U47C A59G,0
8,G4A U14C U20C A117G U134C,0
9,A50U U52A U112C,1.27
10,U13C U46C G54A U91C C98U U143C,0.14
11,U1C U14C G34A A43U U143C,0.41
12,A79U U85C U102C U130C,0
13,U5G U14C A79G,0.31
14,U12C A107G A142G,1.84
15,U12G U29C C103A,0.85
16,U46C G55C A121G A140G,0.42
17,C17U C84U C133A,0.1
18,U14A A50G A121G,0.63
19,A69U U91A A142G C146A,0.01
20,U15A U62C U104C,0.07
21,G93U U102C U108C,0.06
22,A2G C99G A124G,1.16
23,G34U U39C A141G,1.09
24,A79U C84A U130C,0.06

row,Variant,self-cleavage
1,G8A U29C U45A,1.15
2,A6G G49U U112C A138G,1.45
3,G7A A42G U100A U119C,1.23
4,U12C U14C A50U U73A,0.25
5,A22G G40A A79U U104A A129G,0.76
6,A59G A67G U85A U132C,0
7,U12C U130C C146U,1.5
8,U81C G88A A140G,0
9,U9A U45C A136U,0
10,C3U A43G U104A,0.15
11,U13C U39A U45C U87C U134A A136G,0
12,U1C U9A A57G A138U,1.1
13,U20A U23C U45A U104G,0.93
14,U39A A92G A107G U108C A141G,0
15,U9A U13C A42G A77U U108C G135A,0
16,U26C G97A A140G,0.1
17,U12G U14C U143C,0.89
18,U73C A121U A136G A141G,2.6
19,G40U U81C U143A,1.69
20,U5C U39A G53A U119C,0.83
21,U20A U73A U102A A117U,0.76
22,U29A U96A U134C,0
23,U15C A67U C128U,0.23
24,U14C G32A U62C U119C A136U,0.09

row,Variant,self-cleavage
1,A31C G36A U81A U109C,1.61
2,U12G A22U C38U U87A G114A A121G,0.19
3,U13C A43G U134C,0.61
4,A77U U100C A129U,1.66
5,U73C U109G U115A,0.53
6,U12A G36A A94G A136G U143C,0
7,C101G A121U A142G,0.48
8,U73C U87A A142G,0
9,A22U A94G C145U,0.18
10,A2G U20C A136G,0.75
11,U20C U39C A50U,0.82
12,A6G A64G A136G,0.19
13,U14C U26C A50G A94U U112C,0
14,U109C A129U U143C,2.51
15,A64G A92G C120U,0.36
16,U15C C19U A117U,1.81
17,U52C U73C A142G,1.84
18,A69G U102A A138G,0.26
19,U26C U46C U108C A124U G126A,1.53
20,C111A A136G A138U,1.42
21,U13A A64G U104C,0.08
22,C84U A107G A140G,0.12
23,U12A C99U A124U,0.81
24,U13C A57G A59G,0.12

row,Variant,self-cleavage
1,U46C A64G A140G,0.23
2,A67U A77U U85C U87A,0.05
3,C3U A94G U134C,0
4,U39A U104G A129G,1.76
5,A77U A94U A142U,0.23
6,A43G A50C A65U G127U,0.32
7,A6U A43U U87A,0.09
8,C56U A57C U62A A79U U87A A92U A121U,0.06
9,C28G U62C C146G,0.22
10,U1C U81G A140G,1.84
11,U130G U134C A142G,0.14
12,U12C U108C U132A,2.34
13,U20C A43G U112C U119C U143C,0.77
14,G33U U52C A142G,1.11
15,U26A U39A A50C,0.42
16,U1A G41U A43G A92G,0
17,C76G A79G G86A,0.21
18,A6U G35U A64C G105A,0.34
19,U15G U26A G32C U112C,1.31
20,C101U U112C A136G,2
21,U46C U81C A107G,2.63
22,A24G A64G C145U C146A,1.27
23,U20C A22G A92U,0.51
24,U1A U5C U102C G114A,1.11

row,Variant,self-cleavage
1,U13A U20G U45C U87C U130C,0.57
2,U14C U46A A78U,2.05
3,U13C U47A A59U A69U,0.21
4,U5C U73A A129G U132C,1.91
5,U62A A67G A94G A129C,0
6,A77U A78U A117U,2.3
7,U9A C19U U109C A121G,0.42
8,A77U G106A A129U,1.46
9,U46C U47A U100C,1.23
10,U13C U14C C120A,1.1
11,A43U A67G A141G,0.64
12,G11A U12C G83A,0.74
13,U20G G36U A124G A140U,1.06
14,U12A U13C A77G A117G A129U,1.91
15,U91C U96C U104C A140G,0
16,U100C U104C A138G,2.8
17,U9C A57U C131A,0.2
18,C19U A64G U96C,0
19,U12C U45C U100C U112C,2.83
20,U13C G58A U87G,0.25
21,A22G A24C U39C C68U U81A G88A U115A,0.06
22,A43G A77U U91C U108A A129G U134A,0
23,U12A A57U C84U U96C,0.03
24,A42G G75C U100A A121U U130C A141G,0.24

row,Variant,self-cleavage
1,A22G A57U G89U A117G,0
2,G25A A94U U96A,0.05
3,A59G U115C U130C,0
4,U14C G72A U85C,0.13
5,G33U A69U A77U,0.04
6,A42G A50G U52C C56U A78G U85A A136G,0.08
7,U9A U52A A79G U87A,0.23
8,G53A U112C A142G,1.04
9,G53C U115A U143C,1.76
10,A24G G32C G53A A94G C111U U119A A142G,0.3
11,A79C U119C U132C,1.31
12,U20C U52C G72A,2.12
13,A31U A57G U108C,2.3
14,U62C G126U U134C,0.06
15,A24U G40A U52C,1.18
16,U12C U102A A142G,1.42
17,C116U A129C A141G,0.61
18,U5C U14C U26C U39C G127A A138G,1.06
19,U13C U47C G72A U73A A79U A92G,0.28
20,U14C A59G U87G,0.21
21,C3U U26A A140G,0.89
22,G11A U47A C56A,0.06
23,U81A A92G G114A,0.12
